Reference: PubChem BioAssay AID488969 (Vanderbilt High Throughput Screening Facility, 2010)
The full ranking holds about 110,000 compounds; the median of “z-score” is about -0.1, and the highest 2% start at about 2. The list shows a part of the results. The source made the active and inactive calls.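 The calls were made as follows: active = z-score in the third read window above 3 or below -3; inactive = the rest.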

Target: Metabotropic glutamate receptor 8 (Rattus norvegicus) (UniProt P70579)
Experiment: rat mGluR8 modulators via GIRK flux, primary screen, cell-based, thallium flux, HTS (AID 488969)
Details: HEK293 rat mGluR8, GIRK (G protein-gated inwardly rectifying potassium channel) thallium flux, FluoZin2; at 10 µM; stronger effect = higher value; submaximal glutamate (EC20) added with thallium

UniProt P70579, sequence (P70579 whole entry, looked up): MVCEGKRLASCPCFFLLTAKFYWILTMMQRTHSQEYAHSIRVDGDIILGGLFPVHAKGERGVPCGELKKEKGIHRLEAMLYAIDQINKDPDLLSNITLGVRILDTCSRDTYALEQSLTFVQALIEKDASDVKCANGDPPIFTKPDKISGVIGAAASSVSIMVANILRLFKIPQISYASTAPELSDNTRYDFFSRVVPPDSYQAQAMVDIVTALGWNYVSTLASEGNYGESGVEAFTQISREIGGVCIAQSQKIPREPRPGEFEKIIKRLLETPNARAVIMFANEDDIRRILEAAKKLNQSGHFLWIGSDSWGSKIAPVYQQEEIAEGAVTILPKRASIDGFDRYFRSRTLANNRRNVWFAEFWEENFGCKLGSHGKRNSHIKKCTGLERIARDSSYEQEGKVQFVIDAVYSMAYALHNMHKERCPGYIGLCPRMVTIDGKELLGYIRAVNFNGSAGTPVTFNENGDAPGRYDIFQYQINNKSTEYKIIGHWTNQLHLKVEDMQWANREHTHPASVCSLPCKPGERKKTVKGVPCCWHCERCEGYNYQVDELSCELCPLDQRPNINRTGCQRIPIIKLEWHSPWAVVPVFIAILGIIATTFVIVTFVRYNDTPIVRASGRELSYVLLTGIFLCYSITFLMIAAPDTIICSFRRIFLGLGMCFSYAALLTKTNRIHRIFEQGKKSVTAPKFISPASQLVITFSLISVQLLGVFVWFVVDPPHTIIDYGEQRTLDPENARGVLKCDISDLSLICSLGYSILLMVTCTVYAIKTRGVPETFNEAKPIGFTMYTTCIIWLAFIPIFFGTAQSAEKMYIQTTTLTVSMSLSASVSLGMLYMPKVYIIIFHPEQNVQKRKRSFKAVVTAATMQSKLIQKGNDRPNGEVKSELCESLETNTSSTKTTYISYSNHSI

Row | Structure (SMILES) | z-score
1 | CC(=O)N1CCC(N(C(=O)Nc2c(F)cccc2F)C(C)C)CC1 | 0.175
2 | O=c1c2c3n(c(=S)nc2[nH]n1-c1ccccc1)CCCCC3 | 1.53
3 | Oc1c(Br)cc2oc3c(c2c1CNCc1ccccc1)CCCC3 | -0.128
4 | COc1ccc(NC(=O)CSc2ncnc3c2cnn3CCc2ccccc2)cc1 | -0.079
5 | CCn1c(C)c(C(C)=O)c(N2CCN(c3ccccc3)CC2)nc1=S | -0.0503
6 | Cc1cc(C)n2cc(CSc3nc4ccccc4s3)nc2n1 | -0.0757
7 | Cc1ccc2cc(CN(CCCO)S(=O)(=O)c3cccc4nsnc34)c(=O)[nH]c2c1 | 0.13
8 | Cc1ccc(-c2onc3ccc(C4(C)OCCO4)cc23)cc1 | 0.0375
9 | CC1(C)SC(=S)N(NC(=O)Nc2cccc3ccccc23)C1N(O)C(=O)Nc1ccccc1 (centres undefined) | 1.25
10 | Cc1nc2ccc(N=NC3=C(O)CCCC3=O)cc2s1 | -0.117
11 | O=C(Nc1ccncc1)c1cncc(Br)c1 | -0.394
12 | CN(c1ccc(C(=O)NCc2ccncc2)cc1)S(C)(=O)=O | 0.373
13 | C/C(=N\NC(=O)c1cccc(S(=O)(=O)Nc2cccc(Cl)c2)c1)c1cccs1 | -0.16
14 | CC(C)Cc1csc(NC(=O)c2ccc(F)cc2)c1C(=O)O | -0.234
15 | N#C/C(=C\c1ccco1)C(=O)Nc1cccc2ncccc12 | -0.604
16 | Cc1nc2nc(SCC(=O)NCc3ccco3)nn2c(C)c1Cc1ccccc1 | -0.448
17 | CC1CN=C2C(C(=O)Nc3ccccc3)=C(O)CC(c3ccccc3)N21 (centres undefined) | 2.31
18 | CCn1c(CSc2nc3ccccc3s2)nnc1SCC(=O)OC(C)(C)C | 0.041
19 | COC(=O)c1ccc(CSc2nnc(Nc3cccc(OC)c3)s2)o1 | 0.67
20 | Cc1nnc(NC(=O)c2oc3c(ccc4ccccc43)c2C)s1 | 0.0197
21 | Cc1nnsc1SC(C)C(=O)O (centres undefined) | 0.0695
22 | Brc1ccc(CSc2nnc(Cc3c[nH]c4ccccc34)o2)cc1 | -0.472
23 | O=C(NCc1ccco1)c1cnn2c(C(F)(F)F)cc(-c3ccccc3)nc12 | -0.67

Row | Structure (SMILES) | z-score
24 | COc1ccccc1-c1noc(-c2ccco2)n1 | 0.95
25 | CCC(=O)Nc1ccc(N2CCN(S(C)(=O)=O)CC2)cc1 | -0.134
26 | CCN1C(=O)CC(N2CCC(Nc3ccc(OC)cc3)CC2)C1=O (centres undefined) | 0.0918
27 | CCC(C)[C@H](NC(=O)Nc1ccc2c(c1)OCCO2)C(=O)O (some centres undefined) | -0.196
28 | Clc1ccccc1C1CC(c2ccccc2)Nc2ncnn21 (centres undefined) | -1.78
29 | COC(=O)C(C)Sc1nnc(-c2ccncc2)o1 (centres undefined) | -0.297
30 | COc1ccc(S(=O)(=O)NCCc2cn3cccc(C)c3n2)cc1OC | 0.0226
31 | CC1CCCC(N2C(=O)NC(NC(=O)c3ccco3)(C(F)(F)F)C2=O)C1C (centres undefined) | 0.364
32 | COc1ccc(N2C(=O)CC(S/C(N)=N/N=C/c3ccnc4ccccc34)C2=O)cc1 (centres undefined) | -0.229
33 | CCNc1nc(NCC)n2c(SCC(=O)NC34CC5CC(CC(C5)C3)C4)nnc2n1 | -0.392
34 | CCOc1ccc(NC(=O)CSc2nccn2C)cc1 | -0.0963
35 | COC(=O)Cc1cc(=O)[nH]c(/N=C(\N)Nc2ccccc2C)n1 | 0.0712
36 | COc1ccccc1OCc1nnc(SCC(=O)NCc2ccco2)n1-c1ccccc1 | -0.449
37 | Cc1occc1C(=O)N/N=C/C1=C(N2CCOCC2)C(=C\c2ccc(Cl)cc2)/CC1 | -0.128
38 | Cc1nn(C(=O)c2cccc([N+](=O)[O-])c2)c(C)c1Sc1ccccc1 | 0.182
39 | O=C(NCc1ccco1)c1scc2c1OCCO2 | -0.343
40 | CCCCC(=O)c1c(C)cc(C)[nH]c1=O | -0.388
41 | O=C(Cc1ccccc1)N1CCc2ccccc21 | -0.123
42 | O=C1C2C3C=CC(C3)C2C(=O)N1c1cccnc1 (centres undefined) | -0.0534
43 | Nn1c(-c2ccccn2)nnc1-c1ccccn1 | 0.166
44 | COc1ccc(NC(=S)Nc2cccc([N+](=O)[O-])c2)cc1 | 0.0335
45 | CNC(=O)c1ccc2snnc2c1 | 0.136
46 | CCn1c(SCC(=O)Nc2cccc(NC(C)=O)c2)nnc1C(C)C | -0.322

Row | Structure (SMILES) | z-score
47 | Cc1ccc(NC2=C(Cl)C(=O)OC2OC(=O)c2ccco2)cc1C (centres undefined) | -0.387
48 | CS(=O)(=O)Nc1ccc(C2=NN(C(=O)C3CCCCC3)C(c3cccs3)C2)cc1 (centres undefined) | active: -4.15
49 | CCOC(=O)c1ccc(Nc2nnc3nc(C)cc(C)n23)cc1 | 0.145
50 | S=C(NCc1ccc(Cl)cc1)Nc1ccc(Cl)cc1Cl | -0.0419
51 | C=CCN=C(C)C1=C(O)C(C)OC1=O (centres undefined) | 0.0669
52 | CC(C)(C)NCC(O)COc1c(F)cc(Br)cc1F (centres undefined) | 0.622
53 | Cc1cc(C(=O)Nn2c(-c3ccc(Br)cc3)nc3ccccc3c2=O)ccc1[N+](=O)[O-] | 0.0148
54 | Cc1nn(-c2ccccc2)c(Cl)c1C(=O)OC(C)C(=O)Nc1ccc2c(c1)OCO2 (centres undefined) | -0.936
55 | O=C(O)c1c[nH]ccc1=O | -0.307
56 | Cc1nc(NC(C)(C)CO)c([N+](=O)[O-])cc1[N+](=O)[O-] | -0.154
57 | COC(=O)c1cc(C#N)c(NCc2ccc(Cl)cc2Cl)nc1C | -0.106
58 | O=C1CN(C(=O)c2ccc(Br)o2)C(c2ccccc2)c2cc(Br)ccc2N1 (centres undefined) | -0.575
59 | COC(=O)c1sccc1NC(=O)c1cc(-c2ccc(C)cc2)nc2ccccc12 | -0.553
60 | COc1cc(/C=N/NC(=O)COc2cc(C)cc(C)c2)ccc1OS(=O)(=O)c1ccc(C)cc1 | -0.228
61 | Cc1ccc(C(C#N)N2CCOCC2)cc1 (centres undefined) | -0.0816
62 | O=C(NC1CCCc2ccccc21)C1CCN(c2c3c(nc4ncnn24)CCC3)CC1 (centres undefined) | -0.302
63 | COc1ccc(C(C#N)C2(C)OCCO2)cc1OC (centres undefined) | -0.255
64 | CCCCOC(=O)C(C)Nc1n[nH]c(=S)[nH]c1=O (centres undefined) | -0.489
65 | O=[N+]([O-])c1ccc(OCCN2CCCCCC2)cc1 | 0.121
66 | CCOC(=O)c1sc(NC(=O)c2ccccc2F)c(C(N)=O)c1C | -0.488
67 | COC(=O)CSc1nc(N)c(C#N)c(-c2ccco2)c1C#N | -0.328
68 | COc1cc(OC)cc(C(=O)NC2CCN(C(=O)N3c4ccccc4Sc4ccccc43)CC2)c1 | -0.171
69 | COc1cc(C)c(NC(=S)Nc2cccc(Cl)c2)cc1OC | 0.0992

Row | Structure (SMILES) | z-score
70 | Cc1ccc(-n2[nH]c(C)c(C=Nc3ccc4[nH]c(=O)[nH]c4c3)c2=O)cc1C | -0.26
71 | COCCCNC(=O)CS(=O)(=O)Cc1nc(-c2ccccc2C)oc1C | -1.79
72 | CC(C)(C)OC(=O)N1CCC[C@H]1c1nnc(SC/C=C/c2ccccc2)o1 | -0.145
73 | COc1ccc(C(=O)N(Cc2ccccc2)Cc2cc3cc4c(cc3[nH]c2=O)OCCO4)cc1 | 0.201
74 | O=C(c1ccco1)N1CCN(C(c2ccc(F)cc2)c2nnnn2Cc2cccs2)CC1 (centres undefined) | -0.0646
75 | CN(C(=O)CSc1nc(C2CC2)nc2ccccc12)c1nc(-c2ccccc2)cs1 | 0.46
76 | CCc1nnc(NS(=O)(=O)c2ccc(N/C=C\C(=O)c3cccc4ccccc34)cc2)s1 | -0.313
77 | Cc1ccc(Sc2cnc3ccccc3n2)cc1 | -0.0867
78 | Cc1ccc(NC(NC(=O)c2ccccn2)C(Cl)(Cl)Cl)cc1 (centres undefined) | 0.295
79 | C[n+]1ccccc1N1CCN(c2ccccc2Cl)CC1 | -0.103
80 | Cc1ccc2nc(CSc3nnc(Cc4cccs4)n3C3CCCCC3)cc(=O)n2c1 | 0.361
81 | O=C(CSc1nc2ccccc2n1CC(=O)NCc1ccccc1)NCc1ccco1 | 0.0601
82 | CCN(CC)c1ccc(N=Cc2c(C)[nH]c3ccccc23)cc1 | 0.894
83 | COc1ccc(NC(=O)C(NC(=O)Cc2cccs2)c2ccc(C)cc2)cc1 (centres undefined) | 0.42
84 | CCN(CC)S(=O)(=O)c1ccc(Cl)c(C(=O)OC)c1 | -0.181
85 | COc1ccccc1COCC(O)CN(Cc1ccco1)Cc1ccccc1O (centres undefined) | -0.39
86 | Cc1nn(C)c(C)c1S(=O)(=O)NC1CCCC1 | 0.579
87 | CCOC(=O)c1sc(NC(=O)c2sccc2C)cc1C | -0.633
88 | CC(Sc1nc(-c2ccc(F)cc2)cs1)C(=O)N1c2ccccc2CC1C (centres undefined) | 0.0161
89 | O=S(=O)(N1CCOCC1)n1nnc2ccccc21 | 0.545
90 | Cn1c(=O)c2ncn(CC(=O)NCCOc3ccc(C(C)(C)C)cc3)c2n(C)c1=O | 0.893
91 | CC(=O)Nc1cccc(C(=O)/C=C/c2ccc(/C=C/C(=O)c3cccc(NC(C)=O)c3)cc2)c1 | 0.033
92 | CCSc1nc(N)nc(-c2cccs2)c1C#N | -0.794

Row | Structure (SMILES) | z-score
93 | Cc1ccc(NC(=O)CC2SC(=O)NC2=O)cc1 (centres undefined) | -0.167
94 | Cc1cc2nc(-c3ccc(SCC(=O)N4CCc5ccccc54)nc3)[nH]c2cc1C | -0.205
95 | CN(C)C(=O)COC(=O)c1cc(Cl)cc(Cl)c1N | 0.496
96 | Cc1cc(C)c(C#N)c(SCC(=O)C(C)(C)C)n1 | -0.42
97 | COc1cccc(/C=N/NC(=O)CSc2ccccc2C)c1O | -0.279
98 | COc1ccc(Cl)cc1NC(=O)C(C)NC(c1ccccc1)c1ccccc1 (centres undefined) | -0.301
99 | O=C(c1cnn2c(C(F)(F)F)cc(-c3ccco3)nc12)N1CCCc2ccccc21 | -0.976
100 | COc1ccc(CCC(=O)Nc2cc(Cl)ccc2OC)cc1 | -0.554
101 | O=C(CCC(=O)c1ccc(Cl)cc1)OCC(=O)c1ccccc1 | -0.368
102 | Cc1ccc(-c2cc(C(=O)N/N=C/c3ccco3)[nH]n2)cc1 | -0.942
103 | Cc1nn(CC(=O)O)c(C)c1Cl | -0.319
104 | CC(=O)Nc1ccc(Sc2ncnc3scc(-c4ccccc4)c23)cc1 | -0.306
105 | CCCC(C)NC(=O)Cc1ccc(Br)cc1 (centres undefined) | -0.111
106 | COc1ccc(-c2nn(-c3ccccc3)cc2CO)cc1 | -0.269
107 | CCOC(=O)c1cnc(SCC(C)C)nc1N | -0.417
108 | CC12CCC(C(=O)NNc3ccc([N+](=O)[O-])cc3)(CC1=O)C2(C)C (centres undefined) | 0.376
109 | CNC(=S)N/N=C/c1cn(Cc2ccc(C)cc2)c2ccccc12 | -0.123
110 | O=C1NC(=Nc2cccc(Cl)c2)SC1Cc1cccc(Cl)c1Cl (centres undefined) | -0.324
111 | CCOC(=O)C1=C(N)N2C(=O)C(C)SC2=C(C(=O)OC)C1c1cccc(OC)c1 (centres undefined) | 0.245
112 | Cc1ccc(C(=O)NC2CCS(=O)(=O)C2)cc1S(=O)(=O)N1CCOCC1 (centres undefined) | 0.00448
113 | CCN(CC)S(=O)(=O)c1cc(NC(=O)C(C)OC(=O)c2[nH]c(C)c(C(C)=O)c2C)ccc1C (centres undefined) | 0.468
114 | CC(C)Oc1cccc(C(=O)NC(=S)Nc2ccc3c4c(cccc24)CC3)c1 | 1.24
